From PubChem BioAssay (NCI) come the findings set out here.

The subject of the test is NCI-H322M lung. The test is described as follows: NCI tumour cell line growth inhibition, 48 h.

SMILES strings stand for the structures. Where “and” joins values, the source holds several entries; their conditions need not be identical. Identical values can stand only once.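 Cells were grown in 96-well plates and exposed to each compound for 48 hours at five concentrations; endpoints were interpolated linearly between bracketing concentrations, or set to the highest concentration if not reached. Abbreviation: GI50, concentration required for 50% inhibition of growth. TGI marks complete inhibition of growth.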

As for `NS(=O)(=O)c1ccc(Nc2cc(-c3ccc(O)c(F)c3)[nH]n2)cc1`, the GI50 is 12.4 µM and the TGI was more than 25 µM.

Take `C#Cc1cccc(Nc2ncnc3cc(NC(=O)CCl)ccc23)c1`: the GI50 was 3.62 µM and the TGI turned out to be 6.96 µM.

For `CO[C@H]1C[C@@H]2CC[C@@H](C)[C@@](O)(O2)C(=O)C(=O)N2CCCC[C@H]2C(=O)O[C@H]([C@H](C)C[C@@H]2CC[C@@H](OC(=O)C(C)(CO)CO)[C@H](OC)C2)CC(=O)[C@H](C)/C=C(\C)[C@@H](O)[C@@H](OC)C(=O)[C@H](C)C[C@H](C)\C=C/C=C/C=C/1C`, the GI50 was 0.21 µM and the TGI was more than 10 µM.

On to `Cn1cc(/C=C\[N+](=O)[O-])c2ccccc21`, for which the GI50 was more than 100 µM and the TGI is more than 100 µM.

Turning to `CCCCOCCOCCOC1=CC(=O)c2c(O)ccc(O)c2C1=O`, the TGI was determined as 3.06 µM.

For `O=C(c1ccc(O)cc1O)C1C(c2ccc(O)cc2)OC(c2ccc(O)cc2)C1C(=O)c1ccc(O)cc1O` (configuration not stated), the TGI came out at 44.4 µM.

`CCCNC(=O)Nc1c([N+](=O)[O-])cc(C(F)(F)F)cc1[N+](=O)[O-]` yielded a TGI of more than 100 µM.

In turn, `C1CNOCCCONCCCNOCCCONC1` had a TGI of more than 100 µM.

In turn, `COc1ccc(C2c3cc4c(cc3OC(NNc3ccccc3)C2C)OCO4)cc1` (configuration not stated) gave a TGI of more than 100 µM.

`Cc1ccccc1N=Nc1c(O)ccc2ccccc12` gave a TGI of more than 100 µM.

Turning to `CSc1ccc(C2=C(c3ccccc3)C(=O)OC2)cc1`, the GI50 is 3.79 µM and the TGI came out at 53.7 µM.

For `O=C(O)C1=C/C(=C(/c2ccccc2)c2cc(C(=O)O)c(O)c3ccccc23)c2ccccc2C1=O`, the TGI is more than 100 µM.

With `COc1ccc(-c2cc(-c3ccc(Nc4nc(Nc5ccccc5)nc(Nc5ccc(Cl)cc5)n4)cc3)nc(N)n2)cc1`, the GI50 was 7.3 µM and the TGI was more than 50 µM.

Regarding `CC1=CC2C(C=C1)S(=O)(=O)N1CC21c1ccccc1` (configuration not stated), the TGI was more than 100 µM.

As for `CCN(CC)c1ccc(/C=C/C(=O)c2ccc(Nc3nc(Nc4ccccc4)nc(Nc4ccccc4)n3)cc2)cc1`, the GI50 is 6.36 µM and the TGI was more than 100 µM.

`CCOC1OC(CO)C(O)CC1n1ccc(=O)[nH]c1=O` (configuration not stated) had a TGI of more than 100 µM.

Take `CCCCCC(=O)N[C@@H](c1ccco1)[C@@H](O)C(=O)O[C@H]1C[C@@]2(O)[C@@H](OC(=O)c3ccccc3)[C@@H]3[C@]4(OC(C)=O)CO[C@@H]4C[C@H](O)[C@@]3(C)C(=O)[C@H](OC(C)=O)C(=C1C)C2(C)C`: the GI50 was 0.000779 µM and the TGI was more than 25 µM.

`CCCCN(CCCC)C(=O)[C@H](CC)[C@@H]1CC[C@@H](C)[C@@H]([C@H](C)[C@@H](O)[C@@H](C)C(=O)[C@H](CC)C2O[C@]3(C=C[C@@H](O)[C@]4(CC[C@@](C)([C@H]5CC[C@](O)(CC)[C@H](C)O5)O4)O3)[C@H](C)C[C@@H]2C)O1` (some centres not stated): the GI50 is 2.66 µM and the TGI is 9.71 µM.

In the case of `COC1(CC[C@@H](C)COC2OC(CO)C(O)C(O)C2O)O[C@H]2C[C@H]3[C@@H]4CC=C5C[C@@H](OC6OC(CO)C(OC7OC(C)C(O)C(O)C7O)C(O)C6OC6OC(C)C(O)C(O)C6O)CC[C@]5(C)[C@H]4CC[C@]3(C)[C@H]2[C@@H]1C` (some centres not stated), the GI50 is 2.35 µM and the TGI amounted to 6.82 µM.

The molecule `COc1ccc(C(O)/C(=N/N)c2nc3ccc(Cl)cc3[nH]c2=O)cc1` (configuration not stated) showed a TGI of more than 100 µM.

Consider `C=C1CC(C)(COc2ccc3c(C)c(Cl)c(=O)oc3c2)OC1=O` (configuration not stated), for which the TGI turned out to be 19 µM.

Molecule `O=C(NCCN1CCCCC1)c1ccc(Br)cc1` displayed a TGI of more than 100 µM.

As for `CC(CSC(=N)N)C(N)=O` (configuration not stated), the TGI was more than 100 µM.

Consider `Cc1cc(=O)oc2ccc(OC/C=C3\CCC(=O)O3)cc12`, for which the GI50 is 14.3 µM and the TGI was determined as 37.4 µM.

`CCOC(=O)C(NC(=O)OCc1ccccc1)C(=O)O` (configuration not stated) gave a TGI of more than 100 µM.

As for `CC(C)Oc1c(C2(c3ccccc3)SCCCS2)c(=O)c1=O`, the TGI was more than 100 µM.

Take `CCCn1c2c(c3ccccc3c1=O)C(=O)c1ccccc1-2`: the TGI was more than 100 µM.

In turn, `O=S(O)CCCCCSSc1ccccc1` showed a TGI of more than 100 µM.

Regarding `CNC(=O)c1n[nH]n(C2CCCCC2)c1=S`, the TGI is more than 100 µM.

In the case of `CSc1nc(=S)[nH]c2c1c(C)nn2-c1ccccc1`, the TGI is more than 100 µM.

Turning to `NC1NC=NC2C1N=CN2C1OC(CO)C2[O][Sn][O]C21` (configuration not stated), the GI50 was more than 100 µM and the TGI was more than 100 µM.

On to `CCc1n[nH]c(=O)n1CCCCCCCCn1c(CC)n[nH]c1=O`, for which the TGI was more than 100 µM.

Consider `O=C(Nc1ccc([N+](=O)[O-])cc1)Nn1cnnc1`, for which the TGI was more than 100 µM.

Regarding `NC(N)=N/N=C/c1c(-c2ccsc2)nc2n1CCS2`, the GI50 was 16.8 µM and the TGI worked out at 44 µM.

Molecule `CC1(C)OC(=O)C(C)(C)C(=O)O1` gave a TGI of more than 100 µM.

With `O=C1CC(c2c[nH]c3ccc(F)cc23)C(=O)N1` (configuration not stated), the GI50 was more than 100 µM and the TGI is more than 100 µM.

For the molecule `O=C1/C(=C/c2ccc(Cl)c(Cl)c2)CN(C(=O)C(Cl)Cl)C/C1=C\c1ccc(Cl)c(Cl)c1`, the GI50 is 0.355 µM and the TGI was determined as 1.4 µM.

For the molecule `O=NN1C(c2ccccc2)CNC(=O)CC1c1ccccc1` (configuration not stated), the TGI was more than 100 µM.

The molecule `COC(=O)CCSC(=O)Nc1ccc(N=Nc2ccccc2)cc1` yielded a TGI of more than 100 µM.

Turning to `COC(=O)C(=O)Cc1nc2ccccc2s1`, the TGI is more than 100 µM.

Regarding `Oc1ccc(Cl)cc1C(c1cc(Cl)ccc1O)C(Cl)(Cl)Cl`, the GI50 was 1.85 µM and the TGI amounted to 5.1 µM.

For the molecule `COc1cc2c(c(OC)c1OC)-c1ccc(SC)c(=O)cc1[C@@H](NCc1ccc(F)cc1)CC2`, the TGI is 75 µM and 34.5 µM.

`C=C1C[C@H]2C=Nc3cc(OCCCOc4cc5c(cc4OC)C(=O)N4CC(=C)C[C@H]4C=N5)c(OC)cc3C(=O)N2C1`: the GI50 is 0.0232 µM.

Consider `O=C1C(c2ccccc2)=C(c2ccccc2)C(c2ccc(Cc3ccc(C4=C(c5ccccc5)C(=O)C(c5ccccc5)=C4c4ccccc4)cc3)cc2)=C1c1ccccc1`, for which the TGI was more than 100 µM.

As to `COc1cc(/C=C2\C(=O)N(Cc3ccc(Cl)cc3)c3ccccc32)cc(OC)c1OC`, the GI50 was 3.72 µM and the TGI was 26.6 µM.
